Results taken from paper PMC12820563, “FoxP3 forms a head-to-head dimer in vivo and stabilizes its multimerization on adjacent microsatellites”.
Some of the results follow.

molecular target: T1, MBP-FoxP1dN (Mus musculus, UniProt P58462 326-579); assay: PD-seq (MBP pull-down with sequencing); 20 mM Tris-HCl pH 7.5, 100 mM NaCl, 1.5 mM MgCl2, 0.4 uM protein, 0.1 uM dsDNA library, 30 min, room temperature, amylose pull-down; high values mean tight binding; settings: protein: recombinant; tags: His6-MBP; chain copies: 2; dsDNA, one strand shown
T1 sequence: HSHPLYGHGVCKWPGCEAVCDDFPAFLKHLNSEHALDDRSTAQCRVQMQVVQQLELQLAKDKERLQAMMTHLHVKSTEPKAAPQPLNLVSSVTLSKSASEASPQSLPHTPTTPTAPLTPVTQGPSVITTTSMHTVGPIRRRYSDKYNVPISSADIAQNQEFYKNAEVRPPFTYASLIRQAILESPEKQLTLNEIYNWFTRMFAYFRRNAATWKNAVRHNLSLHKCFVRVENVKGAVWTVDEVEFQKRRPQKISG
Summary of the method: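 The N-terminus-lacking fragment of mouse FoxP3 or FoxP1 carried a His6-MBP tag and was expressed in E. coli. At 0.4 µM it was incubated with 0.1 µM Klenow-filled degenerate double-stranded DNA library for 30 min at room temperature in Tris pH 7.5 buffer with NaCl and MgCl2, and complexes were caught on amylose resin, washed three times, released with proteinase K, PCR-barcoded and Illumina-sequenced. Binding is reads-per-million enrichment of pull-down over input with replicates pooled.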

Sequence | binding signal
GATGATTGTTCTCCCAGCTGATGAATTTGGCACATCGAGTAAACAAATTTTCCTAATCTTTCTGTTCAAGCGCCATCTAC | 1.04 RPM ratio (pull-down/input)
GATGATTGTTCTCCCAGCTGATGAATTACGTATCTCGAGTAAACAAATTTTCCTAATCTTTCTGTTCAAGCGCCATCTAC | 1.05 RPM ratio (pull-down/input)
GATGATTGTTCTCCCAGCTGATGAATTCTGAAGCTCGAGTAAACAAATTTTCCTAATCTTTCTGTTCAAGCGCCATCTAC | 0.786 RPM ratio (pull-down/input)
GATGATTGTTCTCCCAGCTGATGAATTTCTGTGCTCGAGTAAACAAATTTTCCTAATCTTTCTGTTCAAGCGCCATCTAC | 0.877 RPM ratio (pull-down/input)
GATGATTGTTCTCCCAGCTGATGAATTCCTATCTTCGAGTAAACAAATTTTCCTAATCTTTCTGTTCAAGCGCCATCTAC | 0.802 RPM ratio (pull-down/input)
GATGATTGTTCTCCCAGCTGATGAATTATTCCGGTCGAGTAAACAAATTTTCCTAATCTTTCTGTTCAAGCGCCATCTAC | 0.907 RPM ratio (pull-down/input)
GATGATTGTTCTCCCAGCTGATGAATTTATCAGATCGAGTAAACAAATTTTCCTAATCTTTCTGTTCAAGCGCCATCTAC | 1.03 RPM ratio (pull-down/input)
GATGATTGTTCTCCCAGCTGATGAATTGATTCCTTCGAGTAAACAAATTTTCCTAATCTTTCTGTTCAAGCGCCATCTAC | 1.05 RPM ratio (pull-down/input)
GATGATTGTTCTCCCAGCTGATGAATTAGTCACGTCGAGTAAACAAATTTTCCTAATCTTTCTGTTCAAGCGCCATCTAC | 0.916 RPM ratio (pull-down/input)
GATGATTGTTCTCCCAGCTGATGAATTTAGTTATTCGAGTAAACAAATTTTCCTAATCTTTCTGTTCAAGCGCCATCTAC | 1.22 RPM ratio (pull-down/input)
GATGATTGTTCTCCCAGCTGATGAATTTTTATTGTCGAGTAAACAAATTTTCCTAATCTTTCTGTTCAAGCGCCATCTAC | 2.51 RPM ratio (pull-down/input)
GATGATTGTTCTCCCAGCTGATGAATTGGTACTGTCGAGTAAACAAATTTTCCTAATCTTTCTGTTCAAGCGCCATCTAC | 1.04 RPM ratio (pull-down/input)
GATGATTGTTCTCCCAGCTGATGAATTCACAATGTCGAGTAAACAAATTTTCCTAATCTTTCTGTTCAAGCGCCATCTAC | 0.966 RPM ratio (pull-down/input)
GATGATTGTTCTCCCAGCTGATGAATTTGGTCCGTCGAGTAAACAAATTTTCCTAATCTTTCTGTTCAAGCGCCATCTAC | 0.9 RPM ratio (pull-down/input)
GATGATTGTTCTCCCAGCTGATGAATTGGGGCGATCGAGTAAACAAATTTTCCTAATCTTTCTGTTCAAGCGCCATCTAC | 0.85 RPM ratio (pull-down/input)
GATGATTGTTCTCCCAGCTGATGAATTACTTACGTCGAGTAAACAAATTTTCCTAATCTTTCTGTTCAAGCGCCATCTAC | 1.12 RPM ratio (pull-down/input)
GATGATTGTTCTCCCAGCTGATGAATTATCGTTTTCGAGTAAACAAATTTTCCTAATCTTTCTGTTCAAGCGCCATCTAC | 1.18 RPM ratio (pull-down/input)
GATGATTGTTCTCCCAGCTGATGAATTGCCTGGCTCGAGTAAACAAATTTTCCTAATCTTTCTGTTCAAGCGCCATCTAC | 0.809 RPM ratio (pull-down/input)
GATGATTGTTCTCCCAGCTGATGAATTACCCATTTCGAGTAAACAAATTTTCCTAATCTTTCTGTTCAAGCGCCATCTAC | 0.997 RPM ratio (pull-down/input)
GATGATTGTTCTCCCAGCTGATGAATTAGGACAATCGAGTAAACAAATTTTCCTAATCTTTCTGTTCAAGCGCCATCTAC | 1.24 RPM ratio (pull-down/input)
GATGATTGTTCTCCCAGCTGATGAATTGCATTAGTCGAGTAAACAAATTTTCCTAATCTTTCTGTTCAAGCGCCATCTAC | 1.27 RPM ratio (pull-down/input)

Sequence | binding signal
GATGATTGTTCTCCCAGCTGATGAATTCGCTGCGTCGAGTAAACAAATTTTCCTAATCTTTCTGTTCAAGCGCCATCTAC | 0.945 RPM ratio (pull-down/input)
GATGATTGTTCTCCCAGCTGATGAATTGCCCCCGTCGAGTAAACAAATTTTCCTAATCTTTCTGTTCAAGCGCCATCTAC | 0.928 RPM ratio (pull-down/input)
GATGATTGTTCTCCCAGCTGATGAATTGCTTTCCTCGAGTAAACAAATTTTCCTAATCTTTCTGTTCAAGCGCCATCTAC | 1.2 RPM ratio (pull-down/input)
GATGATTGTTCTCCCAGCTGATGAATTAACCTGTTCGAGTAAACAAATTTTCCTAATCTTTCTGTTCAAGCGCCATCTAC | 0.867 RPM ratio (pull-down/input)
GATGATTGTTCTCCCAGCTGATGAATTTGATTCGTCGAGTAAACAAATTTTCCTAATCTTTCTGTTCAAGCGCCATCTAC | 0.812 RPM ratio (pull-down/input)
GATGATTGTTCTCCCAGCTGATGAATTATTTTTGTCGAGTAAACAAATTTTCCTAATCTTTCTGTTCAAGCGCCATCTAC | 1.37 RPM ratio (pull-down/input)
GATGATTGTTCTCCCAGCTGATGAATTATCGAGGTCGAGTAAACAAATTTTCCTAATCTTTCTGTTCAAGCGCCATCTAC | 0.84 RPM ratio (pull-down/input)
GATGATTGTTCTCCCAGCTGATGAATTGGCTTCATCGAGTAAACAAATTTTCCTAATCTTTCTGTTCAAGCGCCATCTAC | 0.889 RPM ratio (pull-down/input)
GATGATTGTTCTCCCAGCTGATGAATTCCGTGTATCGAGTAAACAAATTTTCCTAATCTTTCTGTTCAAGCGCCATCTAC | 1.1 RPM ratio (pull-down/input)
GATGATTGTTCTCCCAGCTGATGAATTGCATCCGTCGAGTAAACAAATTTTCCTAATCTTTCTGTTCAAGCGCCATCTAC | 1.43 RPM ratio (pull-down/input)
GATGATTGTTCTCCCAGCTGATGAATTTACCATGTCGAGTAAACAAATTTTCCTAATCTTTCTGTTCAAGCGCCATCTAC | 1.28 RPM ratio (pull-down/input)
GATGATTGTTCTCCCAGCTGATGAATTGCGGCAGTCGAGTAAACAAATTTTCCTAATCTTTCTGTTCAAGCGCCATCTAC | 0.919 RPM ratio (pull-down/input)
GATGATTGTTCTCCCAGCTGATGAATTACGAGCCTCGAGTAAACAAATTTTCCTAATCTTTCTGTTCAAGCGCCATCTAC | 0.926 RPM ratio (pull-down/input)
GATGATTGTTCTCCCAGCTGATGAATTAGTAGGCTCGAGTAAACAAATTTTCCTAATCTTTCTGTTCAAGCGCCATCTAC | 0.798 RPM ratio (pull-down/input)
GATGATTGTTCTCCCAGCTGATGAATTTTGTTGCTCGAGTAAACAAATTTTCCTAATCTTTCTGTTCAAGCGCCATCTAC | 1.79 RPM ratio (pull-down/input)
GATGATTGTTCTCCCAGCTGATGAATTCGGATGCTCGAGTAAACAAATTTTCCTAATCTTTCTGTTCAAGCGCCATCTAC | 1.08 RPM ratio (pull-down/input)
GATGATTGTTCTCCCAGCTGATGAATTGGAAATTTCGAGTAAACAAATTTTCCTAATCTTTCTGTTCAAGCGCCATCTAC | 0.843 RPM ratio (pull-down/input)
GATGATTGTTCTCCCAGCTGATGAATTGAGGATGTCGAGTAAACAAATTTTCCTAATCTTTCTGTTCAAGCGCCATCTAC | 0.89 RPM ratio (pull-down/input)
GATGATTGTTCTCCCAGCTGATGAATTCTGATGGTCGAGTAAACAAATTTTCCTAATCTTTCTGTTCAAGCGCCATCTAC | 0.826 RPM ratio (pull-down/input)
GATGATTGTTCTCCCAGCTGATGAATTGAGAAATTCGAGTAAACAAATTTTCCTAATCTTTCTGTTCAAGCGCCATCTAC | 0.906 RPM ratio (pull-down/input)
GATGATTGTTCTCCCAGCTGATGAATTCCTGTATTCGAGTAAACAAATTTTCCTAATCTTTCTGTTCAAGCGCCATCTAC | 1.3 RPM ratio (pull-down/input)

Sequence | binding signal
GATGATTGTTCTCCCAGCTGATGAATTTGTCGTTTCGAGTAAACAAATTTTCCTAATCTTTCTGTTCAAGCGCCATCTAC | 1.1 RPM ratio (pull-down/input)
GATGATTGTTCTCCCAGCTGATGAATTAGAAGAATCGAGTAAACAAATTTTCCTAATCTTTCTGTTCAAGCGCCATCTAC | 0.994 RPM ratio (pull-down/input)
GATGATTGTTCTCCCAGCTGATGAATTGAATCTTTCGAGTAAACAAATTTTCCTAATCTTTCTGTTCAAGCGCCATCTAC | 0.846 RPM ratio (pull-down/input)
GATGATTGTTCTCCCAGCTGATGAATTACGACTGTCGAGTAAACAAATTTTCCTAATCTTTCTGTTCAAGCGCCATCTAC | 0.982 RPM ratio (pull-down/input)
GATGATTGTTCTCCCAGCTGATGAATTAGATCTGTCGAGTAAACAAATTTTCCTAATCTTTCTGTTCAAGCGCCATCTAC | 0.837 RPM ratio (pull-down/input)
GATGATTGTTCTCCCAGCTGATGAATTAGCGGAGTCGAGTAAACAAATTTTCCTAATCTTTCTGTTCAAGCGCCATCTAC | 0.826 RPM ratio (pull-down/input)
GATGATTGTTCTCCCAGCTGATGAATTAGCGGGTTCGAGTAAACAAATTTTCCTAATCTTTCTGTTCAAGCGCCATCTAC | 0.808 RPM ratio (pull-down/input)
GATGATTGTTCTCCCAGCTGATGAATTGTCAATTTCGAGTAAACAAATTTTCCTAATCTTTCTGTTCAAGCGCCATCTAC | 1.14 RPM ratio (pull-down/input)
GATGATTGTTCTCCCAGCTGATGAATTCAGCTGCTCGAGTAAACAAATTTTCCTAATCTTTCTGTTCAAGCGCCATCTAC | 0.744 RPM ratio (pull-down/input)
GATGATTGTTCTCCCAGCTGATGAATTTGGTGCCTCGAGTAAACAAATTTTCCTAATCTTTCTGTTCAAGCGCCATCTAC | 0.873 RPM ratio (pull-down/input)
GATGATTGTTCTCCCAGCTGATGAATTACTCTCCTCGAGTAAACAAATTTTCCTAATCTTTCTGTTCAAGCGCCATCTAC | 0.961 RPM ratio (pull-down/input)
GATGATTGTTCTCCCAGCTGATGAATTTGCCAAATCGAGTAAACAAATTTTCCTAATCTTTCTGTTCAAGCGCCATCTAC | 1.07 RPM ratio (pull-down/input)
GATGATTGTTCTCCCAGCTGATGAATTACTTGCTTCGAGTAAACAAATTTTCCTAATCTTTCTGTTCAAGCGCCATCTAC | 1.01 RPM ratio (pull-down/input)
GATGATTGTTCTCCCAGCTGATGAATTAAGGACGTCGAGTAAACAAATTTTCCTAATCTTTCTGTTCAAGCGCCATCTAC | 0.899 RPM ratio (pull-down/input)
GATGATTGTTCTCCCAGCTGATGAATTCTTGACCTCGAGTAAACAAATTTTCCTAATCTTTCTGTTCAAGCGCCATCTAC | 0.786 RPM ratio (pull-down/input)
GATGATTGTTCTCCCAGCTGATGAATTCCTGAGCTCGAGTAAACAAATTTTCCTAATCTTTCTGTTCAAGCGCCATCTAC | 0.782 RPM ratio (pull-down/input)
GATGATTGTTCTCCCAGCTGATGAATTATGGTTATCGAGTAAACAAATTTTCCTAATCTTTCTGTTCAAGCGCCATCTAC | 1.06 RPM ratio (pull-down/input)
GATGATTGTTCTCCCAGCTGATGAATTCGACGCATCGAGTAAACAAATTTTCCTAATCTTTCTGTTCAAGCGCCATCTAC | 1.09 RPM ratio (pull-down/input)
GATGATTGTTCTCCCAGCTGATGAATTCTGCCTTTCGAGTAAACAAATTTTCCTAATCTTTCTGTTCAAGCGCCATCTAC | 0.913 RPM ratio (pull-down/input)
GATGATTGTTCTCCCAGCTGATGAATTCGCCGCTTCGAGTAAACAAATTTTCCTAATCTTTCTGTTCAAGCGCCATCTAC | 0.868 RPM ratio (pull-down/input)
GATGATTGTTCTCCCAGCTGATGAATTCTTGGGCTCGAGTAAACAAATTTTCCTAATCTTTCTGTTCAAGCGCCATCTAC | 0.749 RPM ratio (pull-down/input)
